According to article PMC12820563:
The list shows a part of the results. The list includes weakly bound sequences.

These sequences were tested against T1, MBP-FoxP3dN (UniProt Q99JB6) (assay: PD-seq (MBP pull-down with sequencing)). Settings: 20 mM Tris-HCl pH 7.5, 100 mM NaCl, 1.5 mM MgCl2, 0.4 uM protein, 0.1 uM dsDNA library, 30 min, room temperature, amylose pull-down; high values mean tight binding; double strand, one strand shown.
T1 sequence: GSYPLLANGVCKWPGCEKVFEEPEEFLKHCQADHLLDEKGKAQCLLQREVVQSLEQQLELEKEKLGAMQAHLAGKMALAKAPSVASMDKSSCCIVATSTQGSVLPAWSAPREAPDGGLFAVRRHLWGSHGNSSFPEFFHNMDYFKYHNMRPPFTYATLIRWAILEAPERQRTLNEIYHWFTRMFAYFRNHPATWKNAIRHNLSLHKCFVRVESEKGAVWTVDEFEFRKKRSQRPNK

Row | Sequence | binding signal (RPM ratio (pull-down/input))
1 | GATGATTGTTCTCCCAGCTGATGAATTGAAAGTGTCGAGTAAACAAATTTTCCTAATCTTTCTGTTCAAGCGCCATCTAC | 0.3
2 | GATGATTGTTCTCCCAGCTGATGAATTTCCTATATCGAGTAAACAAATTTTCCTAATCTTTCTGTTCAAGCGCCATCTAC | 0.287
3 | GATGATTGTTCTCCCAGCTGATGAATTAATTGAGTCGAGTAAACAAATTTTCCTAATCTTTCTGTTCAAGCGCCATCTAC | 0.504
4 | GATGATTGTTCTCCCAGCTGATGAATTCGAGAAATCGAGTAAACAAATTTTCCTAATCTTTCTGTTCAAGCGCCATCTAC | 0.289
5 | GATGATTGTTCTCCCAGCTGATGAATTTGCAAATTCGAGTAAACAAATTTTCCTAATCTTTCTGTTCAAGCGCCATCTAC | 0.496
6 | GATGATTGTTCTCCCAGCTGATGAATTTATGGGTTCGAGTAAACAAATTTTCCTAATCTTTCTGTTCAAGCGCCATCTAC | 1.47
7 | GATGATTGTTCTCCCAGCTGATGAATTGCAGCAGTCGAGTAAACAAATTTTCCTAATCTTTCTGTTCAAGCGCCATCTAC | 0.75
8 | GATGATTGTTCTCCCAGCTGATGAATTATAACGGTCGAGTAAACAAATTTTCCTAATCTTTCTGTTCAAGCGCCATCTAC | 0.343
9 | GATGATTGTTCTCCCAGCTGATGAATTAGGCAGTTCGAGTAAACAAATTTTCCTAATCTTTCTGTTCAAGCGCCATCTAC | 0.85
10 | GATGATTGTTCTCCCAGCTGATGAATTAGTTCCTTCGAGTAAACAAATTTTCCTAATCTTTCTGTTCAAGCGCCATCTAC | 0.617
11 | GATGATTGTTCTCCCAGCTGATGAATTTGCGTCGTCGAGTAAACAAATTTTCCTAATCTTTCTGTTCAAGCGCCATCTAC | 2.28
12 | GATGATTGTTCTCCCAGCTGATGAATTGCAGGATTCGAGTAAACAAATTTTCCTAATCTTTCTGTTCAAGCGCCATCTAC | 0.551
13 | GATGATTGTTCTCCCAGCTGATGAATTCGTCGAGTCGAGTAAACAAATTTTCCTAATCTTTCTGTTCAAGCGCCATCTAC | 0.264
14 | GATGATTGTTCTCCCAGCTGATGAATTGCAGACATCGAGTAAACAAATTTTCCTAATCTTTCTGTTCAAGCGCCATCTAC | 0.762
15 | GATGATTGTTCTCCCAGCTGATGAATTGCGTTCGTCGAGTAAACAAATTTTCCTAATCTTTCTGTTCAAGCGCCATCTAC | 1.18
16 | GATGATTGTTCTCCCAGCTGATGAATTACTAGGTTCGAGTAAACAAATTTTCCTAATCTTTCTGTTCAAGCGCCATCTAC | 0.261
17 | GATGATTGTTCTCCCAGCTGATGAATTGACGACATCGAGTAAACAAATTTTCCTAATCTTTCTGTTCAAGCGCCATCTAC | 0.576
18 | GATGATTGTTCTCCCAGCTGATGAATTTCGGCGCTCGAGTAAACAAATTTTCCTAATCTTTCTGTTCAAGCGCCATCTAC | 0.359
19 | GATGATTGTTCTCCCAGCTGATGAATTCTGAGAATCGAGTAAACAAATTTTCCTAATCTTTCTGTTCAAGCGCCATCTAC | 0.199
20 | GATGATTGTTCTCCCAGCTGATGAATTCAGTTTGTCGAGTAAACAAATTTTCCTAATCTTTCTGTTCAAGCGCCATCTAC | 3.87
21 | GATGATTGTTCTCCCAGCTGATGAATTATATCGCTCGAGTAAACAAATTTTCCTAATCTTTCTGTTCAAGCGCCATCTAC | 0.557

Row | Sequence | binding signal (RPM ratio (pull-down/input))
22 | GATGATTGTTCTCCCAGCTGATGAATTGGCTAGGTCGAGTAAACAAATTTTCCTAATCTTTCTGTTCAAGCGCCATCTAC | 0.308
23 | GATGATTGTTCTCCCAGCTGATGAATTCAGCGCCTCGAGTAAACAAATTTTCCTAATCTTTCTGTTCAAGCGCCATCTAC | 1.17
24 | GATGATTGTTCTCCCAGCTGATGAATTCGCATCCTCGAGTAAACAAATTTTCCTAATCTTTCTGTTCAAGCGCCATCTAC | 5.74
25 | GATGATTGTTCTCCCAGCTGATGAATTCTCGGCTTCGAGTAAACAAATTTTCCTAATCTTTCTGTTCAAGCGCCATCTAC | 0.263
26 | GATGATTGTTCTCCCAGCTGATGAATTAGAGCTGTCGAGTAAACAAATTTTCCTAATCTTTCTGTTCAAGCGCCATCTAC | 0.35
27 | GATGATTGTTCTCCCAGCTGATGAATTAAGTGATTCGAGTAAACAAATTTTCCTAATCTTTCTGTTCAAGCGCCATCTAC | 1.38
28 | GATGATTGTTCTCCCAGCTGATGAATTGACAGCCTCGAGTAAACAAATTTTCCTAATCTTTCTGTTCAAGCGCCATCTAC | 0.47
29 | GATGATTGTTCTCCCAGCTGATGAATTATAATCGTCGAGTAAACAAATTTTCCTAATCTTTCTGTTCAAGCGCCATCTAC | 0.542
30 | GATGATTGTTCTCCCAGCTGATGAATTCTGGCCCTCGAGTAAACAAATTTTCCTAATCTTTCTGTTCAAGCGCCATCTAC | 0.387
31 | GATGATTGTTCTCCCAGCTGATGAATTCGATAAATCGAGTAAACAAATTTTCCTAATCTTTCTGTTCAAGCGCCATCTAC | 0.252
32 | GATGATTGTTCTCCCAGCTGATGAATTAAGCCGTTCGAGTAAACAAATTTTCCTAATCTTTCTGTTCAAGCGCCATCTAC | 0.86
33 | GATGATTGTTCTCCCAGCTGATGAATTAAACTTCTCGAGTAAACAAATTTTCCTAATCTTTCTGTTCAAGCGCCATCTAC | 0.311
34 | GATGATTGTTCTCCCAGCTGATGAATTGTTAGCGTCGAGTAAACAAATTTTCCTAATCTTTCTGTTCAAGCGCCATCTAC | 1.67
35 | GATGATTGTTCTCCCAGCTGATGAATTCTGGACCTCGAGTAAACAAATTTTCCTAATCTTTCTGTTCAAGCGCCATCTAC | 0.25
36 | GATGATTGTTCTCCCAGCTGATGAATTTAAAATATCGAGTAAACAAATTTTCCTAATCTTTCTGTTCAAGCGCCATCTAC | 0.313
37 | GATGATTGTTCTCCCAGCTGATGAATTGTGGGAGTCGAGTAAACAAATTTTCCTAATCTTTCTGTTCAAGCGCCATCTAC | 0.408
38 | GATGATTGTTCTCCCAGCTGATGAATTGGTGCGATCGAGTAAACAAATTTTCCTAATCTTTCTGTTCAAGCGCCATCTAC | 0.732
39 | GATGATTGTTCTCCCAGCTGATGAATTCGGCAACTCGAGTAAACAAATTTTCCTAATCTTTCTGTTCAAGCGCCATCTAC | 5.06
40 | GATGATTGTTCTCCCAGCTGATGAATTTATCCCTTCGAGTAAACAAATTTTCCTAATCTTTCTGTTCAAGCGCCATCTAC | 0.899
41 | GATGATTGTTCTCCCAGCTGATGAATTCACAACGTCGAGTAAACAAATTTTCCTAATCTTTCTGTTCAAGCGCCATCTAC | 0.501
42 | GATGATTGTTCTCCCAGCTGATGAATTGCAGGAGTCGAGTAAACAAATTTTCCTAATCTTTCTGTTCAAGCGCCATCTAC | 0.425

Row | Sequence | binding signal (RPM ratio (pull-down/input))
43 | GATGATTGTTCTCCCAGCTGATGAATTTGTGACGTCGAGTAAACAAATTTTCCTAATCTTTCTGTTCAAGCGCCATCTAC | 1.6
44 | GATGATTGTTCTCCCAGCTGATGAATTGAGCAAGTCGAGTAAACAAATTTTCCTAATCTTTCTGTTCAAGCGCCATCTAC | 1.08
45 | GATGATTGTTCTCCCAGCTGATGAATTATAATATTCGAGTAAACAAATTTTCCTAATCTTTCTGTTCAAGCGCCATCTAC | 1.08
46 | GATGATTGTTCTCCCAGCTGATGAATTAGGTAACTCGAGTAAACAAATTTTCCTAATCTTTCTGTTCAAGCGCCATCTAC | 1.27
47 | GATGATTGTTCTCCCAGCTGATGAATTTTAGTTCTCGAGTAAACAAATTTTCCTAATCTTTCTGTTCAAGCGCCATCTAC | 0.751
48 | GATGATTGTTCTCCCAGCTGATGAATTGAGTTGGTCGAGTAAACAAATTTTCCTAATCTTTCTGTTCAAGCGCCATCTAC | 1.66
49 | GATGATTGTTCTCCCAGCTGATGAATTAGCACCGTCGAGTAAACAAATTTTCCTAATCTTTCTGTTCAAGCGCCATCTAC | 0.376
50 | GATGATTGTTCTCCCAGCTGATGAATTCGCTAGTTCGAGTAAACAAATTTTCCTAATCTTTCTGTTCAAGCGCCATCTAC | 1.09
51 | GATGATTGTTCTCCCAGCTGATGAATTTCTCAATTCGAGTAAACAAATTTTCCTAATCTTTCTGTTCAAGCGCCATCTAC | 0.279
52 | GATGATTGTTCTCCCAGCTGATGAATTTCTTCAATCGAGTAAACAAATTTTCCTAATCTTTCTGTTCAAGCGCCATCTAC | 0.217
53 | GATGATTGTTCTCCCAGCTGATGAATTACGGAGCTCGAGTAAACAAATTTTCCTAATCTTTCTGTTCAAGCGCCATCTAC | 0.247
54 | GATGATTGTTCTCCCAGCTGATGAATTGACATTATCGAGTAAACAAATTTTCCTAATCTTTCTGTTCAAGCGCCATCTAC | 0.741
55 | GATGATTGTTCTCCCAGCTGATGAATTGTCACTGTCGAGTAAACAAATTTTCCTAATCTTTCTGTTCAAGCGCCATCTAC | 0.562
56 | GATGATTGTTCTCCCAGCTGATGAATTGTCCACCTCGAGTAAACAAATTTTCCTAATCTTTCTGTTCAAGCGCCATCTAC | 0.328
57 | GATGATTGTTCTCCCAGCTGATGAATTCTGGTCCTCGAGTAAACAAATTTTCCTAATCTTTCTGTTCAAGCGCCATCTAC | 0.337
58 | GATGATTGTTCTCCCAGCTGATGAATTACACGTATCGAGTAAACAAATTTTCCTAATCTTTCTGTTCAAGCGCCATCTAC | 0.844
59 | GATGATTGTTCTCCCAGCTGATGAATTACGAGGGTCGAGTAAACAAATTTTCCTAATCTTTCTGTTCAAGCGCCATCTAC | 0.344
60 | GATGATTGTTCTCCCAGCTGATGAATTAAGAAGTTCGAGTAAACAAATTTTCCTAATCTTTCTGTTCAAGCGCCATCTAC | 0.251
61 | GATGATTGTTCTCCCAGCTGATGAATTACGTCTATCGAGTAAACAAATTTTCCTAATCTTTCTGTTCAAGCGCCATCTAC | 0.77
62 | GATGATTGTTCTCCCAGCTGATGAATTTCGACCTTCGAGTAAACAAATTTTCCTAATCTTTCTGTTCAAGCGCCATCTAC | 0.368
63 | GATGATTGTTCTCCCAGCTGATGAATTCTGCCAATCGAGTAAACAAATTTTCCTAATCTTTCTGTTCAAGCGCCATCTAC | 0.686
